# According to the antibiotic and cytotoxicity screens of Wong et al. (2023):
# This is one part of the list.
# Test system: HepG2
# Assay: cytotoxicity call (relative viability < 0.9)
# Details: 10 µM
row,SMILES,cytotoxicity call
1,COc1ccc(C#Cc2ccc3c(c2)[C@]2(C(=O)N3)[C@H](C(=O)O)[C@H]3C(=O)O[C@H](c4ccccc4)[C@H](c4ccccc4)N3[C@@H]2c2ccc(O)cc2)cc1,inactive
2,C[C@H]1CN([C@@H](C)CO)C(=O)c2cc(NC(=O)CCN3CCOCC3)ccc2O[C@H]1CN(C)Cc1ccc2c(c1)OCO2,inactive
3,Cc1noc(C)c1NC(=O)N(C)C[C@@H]1OCCCC[C@@H](C)Oc2ccc(NC(=O)Nc3ccccc3)cc2C(=O)N([C@H](C)CO)C[C@H]1C,inactive
4,CN(C)c1nc(N(C)C)nc(N(C)C)n1,inactive
5,COCOc1ccc2cc(Br)ccc2c1-c1c(OCOC)ccc2cc(Br)ccc12,active
6,COc1ccc(S(=O)(=O)N(C)C[C@H]2OCCCC[C@H](C)Oc3ccc(NC(=O)Nc4ccc(F)cc4)cc3C(=O)N([C@H](C)CO)C[C@@H]2C)cc1,inactive
7,Cn1cnc(S(=O)(=O)N[C@H]2C=C[C@@H](CC(=O)N3CCN(c4ccccc4)CC3)O[C@@H]2CO)c1,inactive
8,C[C@@H]1CN([C@@H](C)CO)C(=O)c2cc(NC(=O)c3ccncc3)ccc2O[C@@H](C)CCCCO[C@H]1CN(C)C(=O)Nc1ccc(F)cc1,inactive
9,CC(C)(C)OC(=O)CC[C@@]12N=C(c3ccc(OCCCO)cc3)O[C@@H]1c1ccccc1CN(C(=O)c1ccccc1)C2=O,active
10,C[C@@H]1CN([C@@H](C)CO)S(=O)(=O)c2ccc(C#Cc3ccccc3)cc2O[C@H]1CN(C)S(=O)(=O)c1cn(C)cn1,inactive
11,C[C@@H]1CN([C@H](C)CO)C(=O)CCCn2cc(nn2)CO[C@H]1CN(C)S(=O)(=O)c1ccc(Oc2ccccc2)cc1,inactive
12,C[C@@H]1CN([C@H](C)CO)S(=O)(=O)c2ccc(C#CCN(C)C)cc2O[C@@H]1CN(C)S(=O)(=O)c1cccc(F)c1,inactive
13,C[C@@H]1CN([C@H](C)CO)C(=O)c2cccc(NS(=O)(=O)c3cn(C)cn3)c2O[C@@H]1CN(C)C(=O)Nc1ccccc1,inactive
14,COCC#Cc1ccc2c(c1)O[C@H](CN(C)S(=O)(=O)c1ccc(C)cc1)[C@H](C)CN([C@H](C)CO)S2(=O)=O,inactive
15,COc1cccc(NC(=O)N(C)C[C@@H]2Oc3ncc(C#Cc4ccncc4)cc3C(=O)N([C@@H](C)CO)C[C@H]2C)c1,inactive
16,Cc1cnc(C(=O)NCCc2ccc(S(=O)(=O)NC(=O)NC3CCCCC3)cc2)cn1,inactive
17,COC(=O)[C@H]1CCCC[C@@H]1CN,inactive
18,COC(=O)C1=C2CC[C@H](CO)NC(=O)N[C@H](Cc3ccccc3)C(=O)NCc3cn(nn3)C[C@H](Cc3ccccc3)NC(=O)c3oc(c(C(=O)OC)c3C(=O)OC)CC[C@H](CO)NC(=O)N[C@H](Cc3ccccc3)C(=O)NCc3cn(nn3)C[C@H](Cc3ccccc3)NC(=O)C(=C1C(=O)OC)O2,inactive
19,C[C@@H]1CCCCO[C@H](CN(C)Cc2ccc(C(F)(F)F)cc2)[C@@H](C)CN([C@H](C)CO)C(=O)c2cc(NC(=O)C3CCCCC3)ccc2O1,active
20,O=C(C[C@H]1C=C[C@@H](NS(=O)(=O)c2ccccc2F)[C@@H](CO)O1)NCCCN1CCOCC1,inactive

row,SMILES,cytotoxicity call
1,C[C@@H]1CN([C@@H](C)CO)C(=O)c2cc(NC(=O)Nc3ccc(C(F)(F)F)cc3)ccc2O[C@@H](C)CCCCO[C@@H]1CN(C)CC1CCCCC1,active
2,CN1C(=O)c2cc(NC(=O)Cc3cccs3)ccc2OC[C@H]2O[C@H](CC(=O)NCc3ccc(-c4ccccc4)cc3)CC[C@H]21,inactive
3,NC(=O)NCC#Cc1ccc2c(c1)[C@]1(C(=O)N2)[C@H](C(N)=O)[C@H]2C(=O)O[C@H](c3ccccc3)[C@H](c3ccccc3)N2[C@@H]1c1ccc(OCCO)cc1,inactive
4,COc1ccc(S(=O)(=O)Nc2cccc3c2O[C@@H](CN(C)S(=O)(=O)c2ccccc2)[C@@H](C)CN([C@H](C)CO)C3=O)cc1,inactive
5,CN1C(=O)c2cc(NC(=O)C3CCOCC3)ccc2OC[C@H]2O[C@H](CC(=O)NCc3ccccc3F)CC[C@@H]21,inactive
6,C[C@@H]1CN([C@@H](C)CO)C(=O)c2cc(NC(=O)c3ccccc3)ccc2O[C@@H](C)CCCCO[C@@H]1CN(C)S(=O)(=O)c1ccccc1,inactive
7,C[C@H]1CN([C@@H](C)CO)C(=O)c2cc(C#Cc3ccc(F)cc3)cnc2O[C@@H]1CN(C)Cc1ccccn1,inactive
8,CC=Cc1ccc2n(c1=O)C[C@@H]1[C@@H](CO)[C@H](C(=O)NC3CCC3)[C@H]2N1S(=O)(=O)c1cn(C)cn1,inactive
9,CS(=O)(=O)NCc1cnc2n1CCN(C(=O)[C@H]1CCOC1)CC2,inactive
10,COc1ccccc1C#Cc1ccc2c(c1)O[C@H](CN(C)Cc1cncnc1)[C@@H](C)CN([C@@H](C)CO)S2(=O)=O,inactive
11,N=C(N)c1ccc(OCCCCCOc2ccc(C(=N)N)cc2)cc1.O=S(=O)(O)CCO.O=S(=O)(O)CCO,active
12,C[C@H]1CN([C@@H](C)CO)C(=O)c2cccc(NC(=O)Nc3ccc(C(F)(F)F)cc3)c2O[C@@H]1CN(C)Cc1ccncc1,inactive
13,COc1ccc(S(=O)(=O)Nc2ccc3c(c2)C(=O)N([C@H](C)CO)C[C@H](C)[C@H](CN(C)S(=O)(=O)c2cn(C)cn2)OCCCC[C@H](C)O3)cc1,inactive
14,C[C@H](CO)N1C[C@H](C)[C@@H](CN(C)C(=O)Nc2cccc3ccccc23)Oc2ccc(NS(=O)(=O)c3cccs3)cc2C1=O,inactive
15,Cc1noc(C)c1S(=O)(=O)N(C)C[C@@H]1Oc2ccc(NC(=O)C3CC3)cc2CC(=O)N([C@@H](C)CO)C[C@@H]1C,inactive
16,C[C@@H]1CN([C@H](C)CO)C(=O)Cc2cc(NC(=O)Nc3ccc4c(c3)OCO4)ccc2O[C@H]1CN(C)Cc1ccc(C(=O)Nc2ccccc2N)cc1,inactive
17,COCCOC(=O)N1C(=O)[C@@]2(c3cc(C#CC4(O)CCCCCC4)ccc31)[C@H](c1ccc(O)cc1)N1[C@H](c3ccccc3)[C@H](c3ccccc3)OC(=O)[C@H]1[C@@H]2C(N)=O,inactive
18,Cc1noc(C)c1NC(=O)Nc1cccc2c1O[C@@H](CN(C)Cc1ccc(Oc3ccccc3)cc1)[C@H](C)CN([C@H](C)CO)C2=O,inactive
19,Cc1cc(C)c(S(=O)(=O)N2CCO[C@@H]2CNC(=O)C(=O)NCCCN2CCCC2=O)c(C)c1,inactive
20,C[C@@H]1CN([C@@H](C)CO)C(=O)c2cc(C#CC3CCCCC3)cnc2O[C@@H]1CN(C)C(=O)Cc1ccccn1,inactive
